Data reported in PubChem BioAssay AID1508623 (National Center for Advancing Translational Sciences (NCATS), 2021).
Hit rate of the full screen: of about 48,000 compounds, about 450 (0.94%) were called active. Not shown: some 19% with an inconclusive outcome. Calls follow the shape of the dose curve; as a rule, active = well fitted inhibition curve with a large enough effect; inconclusive = small, poorly fitted or top-dose-only effect; inactive = no such curve, though single readings can be large or run the other way. This is one part of the list.

Assay: Primary qHTS for Identification of Small Molecule Inhibitors of Huntingtin Promoter Activity; also: nearly all actives have a fitted effect of over 50% in size
Conditions: HEK293 HTT promoter firefly luciferase reporter (activity 0% = vehicle and -100% = no light), 24 h; series mostly up to 57.5 µM; activity change, negative = inhibition: at the top concentration
Procedure, shortened: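 Quantitative HTS used concentration series of up to 57.5 uM final on HEK293 luciferase reporter cells, 24 h at 37 degrees C. Readout was Dual-Glo firefly luminescence.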

Activity change, negative = inhibition, inactive:
Cc1nc2ccc(S(=O)(=O)N(CC(=O)Nc3ccc(F)cc3F)Cc3ccccc3)cc2s1 -26.9%, CCOc1ccc(NC(=O)c2ccc3[nH]c(C)c(C)c3c2)cc1 1.31%, O=C(Cn1c(SCc2ccccc2F)nc2ccncc21)Nc1ccccc1C(F)(F)F 5.36%, Cc1ccc(S(=O)(=O)Nc2cccc(-c3cn4cccc(C)c4n3)c2)c(C)c1 -24.6%, O=C(Cn1c(=O)c2cccn2c2cccnc21)NCc1cccc(F)c1 1.88%, CN(C)C(=O)Oc1cccc([N+](C)(C)C)c1 15.9%, CCCCN(C)C(=O)c1cn(C)c2ccc(S(=O)(=O)N3CCC(C)CC3)cc2c1=O -9.83%, COc1ccccc1NC(=O)Cn1c(=O)n(Cc2ccccc2)c(=O)c2c1c1cc(C)ccc1n2C -4.42%, CC(NC(=O)CSc1n[nH]c(-c2ccccc2Cl)n1)c1nc2ccccc2[nH]1 (stereo not drawn) 0.426%, Cc1ccsc1CN1CCc2nc(Nc3ccccc3)ncc2C1 30.1%, O=C(c1cnn(-c2ccc(F)cc2)c1-n1cccc1)N1CCN(c2ccc(F)cc2)CC1 -26.1%, CC1=C(C(=O)Nc2cccc(Cl)c2C)C2(CCCCCC2)OC1=O -17.4%, CC1CCN(S(=O)(=O)c2ccc3c(c2)CCN3)CC1 -22.3%, O=c1[nH]cnc2[nH]ncc12, CCc1ccc(S(=O)(=O)c2nnn3c2nc(Nc2cc(OC)ccc2OC)c2sccc23)cc1 -2.2%, COc1ccccc1Nc1sc(C(=O)c2ccc(C)cc2C)c(N)c1S(=O)(=O)c1ccccc1 -21.4%, O=S(=O)(NCCS(=O)(=O)N1CCN(c2ccccc2)CC1)c1ccc(Br)cc1 -16.3%, Cc1c(C(=O)Nc2nc(-c3ccc(F)cc3)ns2)oc2ccc(Cl)cc12 -2.25%, Cc1ccc(CCNC(=O)CS(=O)Cc2nc(-c3ccccc3Cl)oc2C)cc1 (stereo not drawn) -8.29%, O=C(Cc1ccccc1)Nc1sc2c(c1C(=O)Nc1ccc(Br)cc1)CCC2 -15.5%, Cc1ccc2oc(C(=O)Nc3cccc(Cl)c3)cc(=O)c2c1 -13.8% [at 11.5 µM], COc1ccccc1C(=O)Nc1ccccc1OCc1cc(=O)n2ccccc2n1 -0.441%, O=C(CS)Nc1ccccc1 -21.6%, C/C=C1\[C@H]2C=C(C)C[C@]1(N)c1ccc(=O)[nH]c1C2 4.1%, COc1cccc(N2CC(NC(=O)c3ccc(S(=O)(=O)N4CCOCC4)cc3)CC2=O)c1 (stereo not drawn) -28.1%, COc1ccc(CNc2nc3c(-c4ccccc4)nnn3c3ccccc23)cc1 -15.9%, Cc1cc(C)cc(OCC(=O)Nc2c(C)ccc3nsnc23)c1 -16.7%, Cc1ccccc1NC(=O)CSc1nc2nccnc2c(=O)n1CCc1c[nH]c2ccccc12 -1.66%
